Reference: the supplement of paper PMC11417369
Some of the results follow.

What follows are sequences tested on PfHDP1 homeodomain (GST-tagged) (assay: gcPBM binding intensity (ln(normalized median fluorescence intensity)); higher = stronger DNA binding).
Procedure, shortened: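 In this array assay, P. falciparum DNA-binding domains with a GST tag, expressed in E. coli, were applied for 1 h to primer-extended double-stranded 36-bp intergenic genomic probes and negative controls on an Agilent 4 × 180k array. Bound protein was visualised with Alexa488 anti-GST antibody at 488 nm. Binding intensity is the highest Masliner-normalised natural-log median intensity across replicate spots of either probe orientation.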
For “CGTTATTATCCACATACACACAGGAATAAAAAATTA [CACACA_site2883]”, the “gcPBM binding intensity (ln)” value was 6.69.
With “ATTTGAAATGCATGAACACACACAGCTATAAATGCA [CACACA_site8229]” the “gcPBM binding intensity (ln)” value was 6.43.
With “TATATATGTTAAAACGTGCACATATATATATATATA [GTGCAC_site9589]” the “gcPBM binding intensity (ln)” value was 10.1.
In the case of “ATATTGACAAATATTACACACATATATAAATATGTA [CACACA_site7835]”, the “gcPBM binding intensity (ln)” value was 6.47.
For “CCATAGATATTTTATACACACATATAACATATTAAT [CACACA_site6312]”, the “gcPBM binding intensity (ln)” value was 6.69.
“ATATAATATTACACAAGTACAAAAATTAATACTAAA [XGTACX_site482]” was tested, and the “gcPBM binding intensity (ln)” value was 6.23.
“ATTTATTTTAATATATGTACATATATTTTTTTATTA [XGTACX_site3389]” was tested, and the “gcPBM binding intensity (ln)” value was 6.6.
For “ATATATGCATATTATACACACATATGTATATACATT [CACACA_site965]”, the “gcPBM binding intensity (ln)” value was 7.81.
With “ACCCATGATTGTTACAGTACTCTACTTTCTAATATA [XGTACX_site98]” the “gcPBM binding intensity (ln)” value was 7.11.
“AAACTGTCGCTCATAAAGAAGAATGAAATACATTAA [TGCATGCA_negctrl_site60]” was tested, and the “gcPBM binding intensity (ln)” value was 6.09.
“TGGAGGTCAGTTCACAGTACCCAGGAAATCTACGGA [XGTACX_site1995]” was tested, and the “gcPBM binding intensity (ln)” value was 5.93.
“TTTTCTGTATATTGTGTGCACACAATTAACAAAAAA [GTGCAC_site9817]” was tested, and the “gcPBM binding intensity (ln)” value was 10.6.
In the case of “AAAAAAAAAAAAAATGCACACAATGGCTAGCTGTAC [CACACA_site2273]”, the “gcPBM binding intensity (ln)” value was 9.44.
In the case of “ATACATTTATTGTATTGTACATAATATTATATATTC [XGTACX_site7115]”, the “gcPBM binding intensity (ln)” value was 6.55.
In the case of “TATTTTAAAAAAAAAAGTACACATAATATATATAAC [XGTACX_site5416]”, the “gcPBM binding intensity (ln)” value was 6.79.
For TAATATAATGATGCAGTGCATATGTTAAAATGAAAA, the “gcPBM binding intensity (ln)” value was 8.68.
For “TAATATAATAGAAGTGTACACACATATTTATGGGTG [CACACA_site9023]”, the “gcPBM binding intensity (ln)” value was 6.86.
For “ATATTTATGGAAAAAGAACACACAATCAAACAAAAA [CACACA_site9233]”, the “gcPBM binding intensity (ln)” value was 7.06.
For “TCAAAAGAATAATTGGTGCAAATTATATAATATAAT [GTGCAC_site9804]”, the “gcPBM binding intensity (ln)” value was 10.5.
“CTTTTTTATATCTCTACACACATTTATAACCATTTG [CACACA_site4897]” was tested, and the “gcPBM binding intensity (ln)” value was 7.06.
“ATATATATATATTCCACACACACACCCAAAAAAAAA [CACACA_site3649]” was tested, and the “gcPBM binding intensity (ln)” value was 8.67.
With “ACAAAATAAACCACGTGTACAAATTTATAATGTGTA [XGTACX_site1153]” the “gcPBM binding intensity (ln)” value was 6.55.
“ATAAAATATTAGACATTTATTAATATTACACATATC [XGTACX_negctrl_site364]” was tested, and the “gcPBM binding intensity (ln)” value was 6.15.
“TTTTATTTTTTATTTGCACACAATATGTAAAAAAAT [CACACA_site2927]” was tested, and the “gcPBM binding intensity (ln)” value was 10.6.
With “ATTAAATGCACATATACACACACCCAATTTTAAGTT [CACACA_site3049]” the “gcPBM binding intensity (ln)” value was 11.3.
“AAAAAAAAAAAAAACACACACACACCCACATATACA [CACACA_site2663]” was tested, and the “gcPBM binding intensity (ln)” value was 6.78.
“TATAAGGTGTCCTATACACACTCCAATAAATATATA [CACACA_site2091]” was tested, and the “gcPBM binding intensity (ln)” value was 6.34.
For “AGGAACATAAGCAATGTATAAACATAAAACTATAAT [CACACA_negctrl_site1832]”, the “gcPBM binding intensity (ln)” value was 6.46.
“TAAAGAGAAAAACATACACACACAACAAAATATGTA [CACACA_site8872]” was tested, and the “gcPBM binding intensity (ln)” value was 6.79.
With “TATTAATTAAACCATACACACATAACTTTTTTATAA [CACACA_site6526]” the “gcPBM binding intensity (ln)” value was 6.43.
With ATTTTTTTCTTAGGAGTGCACTTATATTTATTTTAT the “gcPBM binding intensity (ln)” value was 10.3.
In the case of TTATAATAAAGAGGAGTGCAAAAAAAAAAAAAAAAA, the “gcPBM binding intensity (ln)” value was 7.87.
In the case of “AATCAAAATATATCTACACACATTTAAGTAACACAT [CACACA_site3482]”, the “gcPBM binding intensity (ln)” value was 6.7.
For “TAAATATCAAAACACACACACAAAAGTGAATAAATA [CACACA_site3762]”, the “gcPBM binding intensity (ln)” value was 6.64.
With “ACAAGGAATATATAAGATAATTTTAAATATAACACG [CACACA_negctrl_site1734]” the “gcPBM binding intensity (ln)” value was 6.48.
With “ATATATATAATTTTTACACACGCAATAAATATATAT [CACACA_site218]” the “gcPBM binding intensity (ln)” value was 6.73.
With “AAAAAAAAAAAAAACACACACACAAGAGTATATAAA [CACACA_site6580]” the “gcPBM binding intensity (ln)” value was 6.69.
“ATGAATTTATTACATTGTACATTTTTAAAAGGTTAC [XGTACX_site124]” was tested, and the “gcPBM binding intensity (ln)” value was 6.4.
In the case of “TTATATATTTTTTTTTGTACATAGAAGAGGGAAAAA [XGTACX_site2178]”, the “gcPBM binding intensity (ln)” value was 6.49.
“TATACATACATACATACACACACACCGATATATACA [CACACA_site8184]” was tested, and the “gcPBM binding intensity (ln)” value was 7.18.
“TTCCAAAAAATTATTACACACATATGGGCACATATA [CACACA_site679]” was tested, and the “gcPBM binding intensity (ln)” value was 6.54.
For “ATTCTATAATATAAGAGTACTTATTTTTTTTAATTT [XGTACX_site7671]”, the “gcPBM binding intensity (ln)” value was 6.33.
“TATAAAATTAAACAAAGTACTAGACATATATATAGA [XGTACX_site3247]” was tested, and the “gcPBM binding intensity (ln)” value was 6.57.
“AATGTTATTTGTTTATCACACATTAGGATGTTTATA [CACACA_site5710]” was tested, and the “gcPBM binding intensity (ln)” value was 6.54.
“ACGCTAATTATGTGCACACAAATTAAAGGTCTACAA [CACACA_site147]” was tested, and the “gcPBM binding intensity (ln)” value was 11.4.
For “TGTTTCTGCTCTGGACATTTTTAAAAAAGGGAAAGC [CACACA_negctrl_site1463]”, the “gcPBM binding intensity (ln)” value was 6.8.
In the case of “ACAAAAAAACATGAAACACACACAAATATATATATA [CACACA_site8566]”, the “gcPBM binding intensity (ln)” value was 8.55.
“TGCCTATTTTGGATGTGTACACATATATATATTTAT [XGTACX_site6741]” was tested, and the “gcPBM binding intensity (ln)” value was 7.68.
In the case of “TTATAATATTATAAAATAACATTTATTAATTATTGG [CACACA_negctrl_site1794]”, the “gcPBM binding intensity (ln)” value was 6.43.
“TTATTATATTAAAATTGTACTTGCTTTCAATATGAT [XGTACX_site5305]” was tested, and the “gcPBM binding intensity (ln)” value was 6.25.
“TAAACGTTATATAGTGCATGTCATATTTTATTATAT [TGCATGCA_site935]” was tested, and the “gcPBM binding intensity (ln)” value was 7.18.
“TACACGCTAAAATACACACACACACCCACATATATA [CACACA_site4153]” was tested, and the “gcPBM binding intensity (ln)” value was 6.88.
“TTCCCTCCTCAAAATTGTACTAGAATAATAACATAA [XGTACX_site8765]” was tested, and the “gcPBM binding intensity (ln)” value was 6.38.
For “TTTTTTAAACATATTATGTGTATTACATAGTTATGC [XGTACX_negctrl_site596]”, the “gcPBM binding intensity (ln)” value was 6.28.
For “AGCTATGTATTCTACACACACATACAGACATATATA [CACACA_site3428]”, the “gcPBM binding intensity (ln)” value was 6.72.
In the case of “TTTGCATTTCTTAATTGTACTTAAAAAAAAAATAAT [XGTACX_site758]”, the “gcPBM binding intensity (ln)” value was 6.41.
In the case of “ACGATGCATTAATCTGCACACCACAACAAAACGTTT [CACACA_site899]”, the “gcPBM binding intensity (ln)” value was 8.64.
